# Experimental data from PubChem BioAssay (Tox21).
# Where “and” joins values, the source holds several entries; their conditions need not be identical. Equal entries are not always repeated. The inconclusive results got no clear call from the source; some entries with a clear call stand among them for comparison. For some of these results: Potencies of inconclusive entries are doubtful fits and often do not repeat. Calls of active or inactive are those of the source. Unless noted, calls follow the shape of the dose curve; as a rule, active = well fitted curve in the direction sought with a large enough effect in the repeat runs; inconclusive = weak or mixed curves; inactive = no such curve, though single readings can be large; an effect the other way counts as inactive or inconclusive.
# How the values were obtained:
# [1] = target: Aryl hydrocarbon receptor (Homo sapiens) (UniProt P35869); experiment: qHTS assay to identify small molecule that activate the aryl hydrocarbon receptor (AhR) signaling pathway (AID 743085); also: nearly all actives have a fitted effect of over 15% in size
# In short: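 HepG2 cells stably carrying a 20-DRE firefly luciferase reporter (HG2L7.5c1) treated with compound for 24 hr at 37C. Luciferase read by ONE-Glo luminescence, with CellTiter-Fluor viability read first.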
# [2] = target: Peroxisome proliferator-activated receptor gamma (Homo sapiens) (UniProt P37231); experiment: qHTS assay to identify small molecule antagonists of the peroxisome proliferator-activated receptor gamma (PPARg) signaling pathway (AID 743191; calls by dose curve; also: nearly all actives have a fitted effect of over 30% in size; as to ratio activity, negative = inhibition: % is scaled to controls: 0 for no effect and ±100 for the full control effect); settings: HEK293H PPARg-UAS-bla, beta-lactamase ratio, antagonist, 17 h; ratio activity, negative = inhibition: at 62.6 µM (top of the series) unless noted
# In short: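 GeneBLAzer PPARg UAS-bla HEK293H cells carrying a UAS-driven beta-lactamase reporter were plated at 3000 cells/well, preincubated 5 h at 37C, then given compound for 17 h at 37C; LiveBLAzer B/G FRET substrate was read after 1 h at room temperature.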
# [3] = qHTS assay to identify small molecule antagonists of the peroxisome proliferator-activated receptor gamma (PPARg) signaling pathway - cell viability counter screen (AID 743194); settings: PPARg-bla HEK293H viability, CellTiter-Glo luminescence, 17 h, co-treated with 50 nM rosiglitazone; activity change, negative = cytotoxicity: at 62.6 µM (top of the series); also: nearly all actives have a fitted effect of over 55% in size
# In short: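 PPARg-UAS-bla HEK293H cells were plated, rested 5 h at 37 C, then treated with compounds plus rosiglitazone (50 nM final) for 17 h at 37 C; viability was then read by CellTiter-Glo luminescence after 30 min at room temperature.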
# [4] = qHTS assay for small molecule agonists of the antioxidant response element (ARE) signaling pathway (AID 743202; active = well fitted activation curve with a large enough effect in the signal ratio in the repeat runs, not every such curve was filed as active; inconclusive = weak or mixed curves, or effect the other way; inactive = no such curve, though single readings can be large or run the other way; the % refers to the signal ratio); settings: HepG2 ARE-bla reporter, beta-lactamase FRET, 16 h; activation: at 73.3 µM (top of the series) unless noted
# In short: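 Following a 16 h, 37 C exposure of reporter HepG2 cells (ARE-driven beta-lactamase, 2,000 cells/well) to compounds, FRET substrate was applied for 2 h at room temperature and fluorescence intensity recorded.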
# [5] = qHTS assay for small molecule activators of the heat shock response signaling pathway (AID 743210; active = well fitted activation curve with a large enough effect in the signal ratio in the repeat runs, with a control signal flat, not every such curve was filed as active; inconclusive = weak or mixed curves; the % refers to the signal ratio; as to activation: % is scaled to controls: 0 for no effect and ±100 for the full control effect); settings: HeLa HSE-bla reporter, beta-lactamase ratio, 5 h; activation: at 62.6 µM (top of the series)
# In short: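 Heat shock element–beta-lactamase HeLa reporter cells; qHTS with compounds for 5 h at 37 C; detection by FRET substrate fluorescence after 2.5 h at RT.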
# [6] = target: Peroxisome proliferator-activated receptor delta (Homo sapiens) (UniProt Q03181); experiment: qHTS assay to identify small molecule antagonists of the peroxisome proliferator-activated receptor delta (PPARd) signaling pathway (AID 743215; active = well fitted inhibition curve with a large enough effect in the signal ratio in the repeat runs, not every such curve was filed as active; inconclusive = weak or mixed curves, or effect the other way; inactive = no such curve, though single readings can be large or run the other way; the % refers to the signal ratio;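 also: cells stimulated with agonist L165041 at 300 nM final during compound exposure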; as to ratio activity, negative = inhibition: % is scaled to controls: 0 for no effect and ±100 for the full control effect); settings: HEK293H PPARd-UAS-bla, beta-lactamase FRET ratio, antagonist, 17 h; ratio activity, negative = inhibition: at 62 µM (top of the series) unless noted
# In short: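 Plated HEK293H PPARd-bla cells rested 5 h at 37 C and 5% CO2. Compound, then agonist L165041 at 300 nM final, was added; 17 h at 37 C followed. Substrate loading, 2 h room temperature, fluorescence measured.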
# [7] = target: Vitamin D3 receptor (Homo sapiens) (UniProt P11473); experiment: qHTS assay to identify small molecule antagonists of the vitamin D receptor (VDR) signaling pathway (AID 743223; active = well fitted inhibition curve with a large enough effect in the signal ratio in the repeat runs, not every such curve was filed as active; inconclusive = weak or mixed curves, or effect the other way; inactive = no such curve, though single readings can be large or run the other way; the % refers to the signal ratio; as to activity change, negative = inhibition: % is scaled to controls: 0 for no effect and ±100 for the full control effect); settings: VDR-UAS-bla HEK293T, beta-lactamase FRET ratio, 16 h; activity change, negative = inhibition: at 61 µM (top of the series) unless noted
# In short: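 VDR-bla cells were treated with compound plus 3 nM final 1alpha,25-dihydroxyvitamin D3 for 16 h at 37C. Beta-lactamase reporter read by B/G FRET substrate fluorescence after 2 h at room temperature. qHTS format.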
# [8] = qHTS assay to identify small molecule antagonists of the peroxisome proliferator-activated receptor delta (PPARd) signaling pathway - cell viability counter screen (AID 743213); settings: PPARd-bla HEK293H viability, CellTiter-Glo luminescence, 17 h; viability change, negative = cytotoxic: at 62 µM (top of the series) unless noted; also: nearly all actives have a fitted effect of over 50% in size
# In short: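 Viability counter-screen, qHTS format: PPARd-bla HEK293H, L165041 300 nM final, 17 h compound exposure at 37 C, CellTiter-Glo luminescence after 30 min RT.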
# [9] = qHTS assay to identify small molecule that activate the aryl hydrocarbon receptor (AhR) signaling pathway - cell viability counter screen (AID 743086); also: nearly all actives have a fitted effect of over 45% in size
# In short: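 HepG2-AhR-luc (HG2L7.5c1) cells, 4000/well, were preincubated 5 h at 37C, exposed to compound in qHTS format for 24 hr at 37C, then given CellTiter-Fluor for 30 min; viability was read as fluorescence in the reporter wells.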
# [10] = target: Peroxisome proliferator-activated receptor gamma (Homo sapiens) (UniProt P37231); experiment: qHTS assay to identify small molecule agonists of the peroxisome proliferator-activated receptor gamma (PPARg) signaling pathway (AID 743094; active = well fitted activation curve with a large enough effect in the signal ratio in the repeat runs, not every such curve was filed as active; inconclusive = weak or mixed curves, or effect the other way; inactive = no such curve, though single readings can be large or run the other way; the % refers to the signal ratio); settings: HEK293H PPARg-UAS-bla, beta-lactamase FRET ratio, 17 h; activation: at 57 µM (top of the series) unless noted
# In short: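 Reporter activation was scored by fluorescence of cleaved LiveBLAzer B/G substrate (1 h, room temperature) in PPARg-bla HEK293H cells previously treated 17 h at 37C with DMSO-dissolved compounds.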
# [11] = qHTS assay to identify small molecule agonists of the peroxisome proliferator-activated receptor delta (PPARd) signaling pathway - cell viability counter screen (AID 743211); settings: PPARd-bla HEK293H viability, CellTiter-Glo luminescence, 17 h; activity change, negative = cytotoxicity: at 62.6 µM (top of the series); also: nearly all actives have a fitted effect of over 55% in size
# In short: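 PPARd-bla HEK293H cells (3000/well) were pre-incubated 5 h at 37 C, then exposed to compound for 17 h at 37 C. After 2 h with LiveBLAzer substrate, CellTiter-Glo was added to the same wells; luminescence read after 30 min at room temperature.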
# [12] = target: Bile acid receptor (Homo sapiens) (UniProt Q96RI1); experiment: qHTS assay to identify small molecule antagonists of the farnesoid-X-receptor (FXR) signaling pathway (AID 743217; active = well fitted inhibition curve with a large enough effect in the signal ratio in the repeat runs, not every such curve was filed as active; inconclusive = weak or mixed curves, or effect the other way; inactive = no such curve, though single readings can be large or run the other way; the % refers to the signal ratio); settings: HEK293T FXR-UAS-bla, beta-lactamase ratio, CDCA-stimulated, 16 h; activity change, negative = inhibition: at 62.6 µM (top of the series) unless noted
# In short: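 Screen of the Tox21 10K library in quantitative HTS format using FXR-UAS-bla HEK 293T reporter cells. Agonist chenodeoxycholic acid, 50 uM final, added with compounds; 16 h incubation at 37 °C; beta-lactamase FRET fluorescence measured.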
# [13] = qHTS assay to identify small molecule agonists of the farnesoid-X-receptor (FXR) signaling pathway - cell viability counter screen (AID 743218); settings: FXR-bla HEK293T viability, CellTiter-Glo luminescence, 16 h; viability change, negative = cytotoxic: at 62.6 µM (top of the series) unless noted; also: nearly all actives have a fitted effect of over 45% in size
# In short: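 Viability of FXR-bla HEK 293T cells is measured by ATP-based CellTiter-Glo luminescence following 16 h compound treatment at 37 C and a prior 2 h room-temperature beta-lactamase substrate step.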
# [14] = target: Bile acid receptor (Homo sapiens) (UniProt Q96RI1); experiment: qHTS assay to identify small molecule agonists of the farnesoid-X-receptor (FXR) signaling pathway (AID 743220; active = well fitted activation curve with a large enough effect in the signal ratio in the repeat runs, not every such curve was filed as active; inconclusive = weak or mixed curves, or effect the other way; the % refers to the signal ratio); settings: HEK293T FXR-UAS-bla, beta-lactamase FRET ratio, 16 h; activation: at 62.6 µM (top of the series) unless noted
# In short: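 FXR-UAS-bla HEK 293T cells carrying a UAS-driven beta-lactamase reporter were plated for 5 h at 37C/5% CO2, then exposed to DMSO-dissolved Tox21 10K compounds for 16 h at 37C. A LiveBLAzer B/G FRET substrate was loaded for 2 h at room temperature before fluorescence reading.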
# [15] = target: Vitamin D3 receptor (Homo sapiens) (UniProt P11473); experiment: qHTS assay to identify small molecule agonists of the vitamin D receptor (VDR) signaling pathway (AID 743222; calls by dose curve); settings: HEK293T VDR-UAS-bla, beta-lactamase FRET ratio, 16 h; activation: at 63.5 µM (top of the series) unless noted
# In short: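 Fluorescence from cleaved LiveBLAzer B/G FRET substrate served as readout. VDR-bla cells had been treated 16 h at 37C with test compounds in DMSO, following a 4 h settling period, and substrate was loaded for 2 h at RT.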
# [16] = qHTS assay for small molecule agonists of the antioxidant response element (ARE) signaling pathway - cell viability counter screen (AID 743203; calls by dose curve; also: nearly all actives have a fitted effect of over 55% in size); settings: ARE-bla HepG2 viability, CellTiter-Glo luminescence, 16 h; viability change, negative = cytotoxic: at 73.3 µM (top of the series)
# In short: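 Viability counter screen: stably transfected ARE-bla HepG2 line, 16 hrs compound exposure at 37C/5% CO2, ATP-based CellTiter-Glo luminescence measured in the reporter wells.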
# [17] = qHTS assay for small molecule activators of the heat shock response signaling pathway - cell viability counter screen (AID 743209); settings: HSE-bla HeLa viability, CellTiter-Glo luminescence, 5 h; activity change, negative = cytotoxicity: at 62.6 µM (top of the series); also: nearly all actives have a fitted effect of over 50% in size
# In short: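 Viability of HSE-bla HeLa cells is measured with CellTiter-Glo in the wells already used for the reporter read. Compound exposure lasts 5 h at 37 C, and luminescence is read after 30 min at room temperature.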
# Potency is read from the fitted curve at half-maximal effect; tags tell the direction and shape of the fitted curve or compound fluorescence and quenching.
# Chain of UniProt Q96RI1 (Q96RI1 whole entry, looked up): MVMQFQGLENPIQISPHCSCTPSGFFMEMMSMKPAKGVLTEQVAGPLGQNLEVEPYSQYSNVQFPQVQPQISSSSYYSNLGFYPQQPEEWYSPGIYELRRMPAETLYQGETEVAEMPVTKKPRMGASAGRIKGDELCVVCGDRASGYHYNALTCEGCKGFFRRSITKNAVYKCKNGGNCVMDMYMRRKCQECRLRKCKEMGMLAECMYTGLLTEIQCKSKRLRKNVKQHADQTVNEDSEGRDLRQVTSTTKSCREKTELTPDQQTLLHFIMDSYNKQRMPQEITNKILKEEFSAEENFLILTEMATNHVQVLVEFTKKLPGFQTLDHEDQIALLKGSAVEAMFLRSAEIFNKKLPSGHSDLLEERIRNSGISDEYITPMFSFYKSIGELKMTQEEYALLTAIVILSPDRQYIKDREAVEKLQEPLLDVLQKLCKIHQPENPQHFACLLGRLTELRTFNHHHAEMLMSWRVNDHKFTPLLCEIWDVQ
# Chain of UniProt P11473 (P11473 whole entry, looked up): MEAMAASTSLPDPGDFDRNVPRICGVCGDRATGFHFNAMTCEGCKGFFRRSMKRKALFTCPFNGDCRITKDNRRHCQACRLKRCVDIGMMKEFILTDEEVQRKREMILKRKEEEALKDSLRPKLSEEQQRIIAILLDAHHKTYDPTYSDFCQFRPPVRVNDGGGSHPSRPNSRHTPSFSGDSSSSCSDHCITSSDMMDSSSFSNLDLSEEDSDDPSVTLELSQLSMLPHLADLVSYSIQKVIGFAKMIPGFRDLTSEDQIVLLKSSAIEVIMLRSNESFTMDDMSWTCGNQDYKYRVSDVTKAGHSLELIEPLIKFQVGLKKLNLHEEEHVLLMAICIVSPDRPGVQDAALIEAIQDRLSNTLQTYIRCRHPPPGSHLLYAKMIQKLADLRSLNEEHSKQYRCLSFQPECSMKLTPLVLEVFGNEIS
# Chain of UniProt Q03181 (Q03181 whole entry, looked up): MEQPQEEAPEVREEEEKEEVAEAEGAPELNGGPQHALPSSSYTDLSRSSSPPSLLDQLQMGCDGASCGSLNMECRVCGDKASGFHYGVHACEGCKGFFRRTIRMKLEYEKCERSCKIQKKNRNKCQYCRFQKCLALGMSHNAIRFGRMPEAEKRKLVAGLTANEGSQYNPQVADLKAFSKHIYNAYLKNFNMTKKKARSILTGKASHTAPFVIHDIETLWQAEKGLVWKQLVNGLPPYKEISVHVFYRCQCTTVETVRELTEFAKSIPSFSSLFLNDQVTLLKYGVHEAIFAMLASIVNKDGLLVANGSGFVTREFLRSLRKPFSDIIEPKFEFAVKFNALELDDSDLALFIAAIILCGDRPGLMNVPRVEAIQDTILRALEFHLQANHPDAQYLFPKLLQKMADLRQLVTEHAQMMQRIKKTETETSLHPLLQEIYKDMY
# Chain of UniProt P35869 (P35869 whole entry, looked up): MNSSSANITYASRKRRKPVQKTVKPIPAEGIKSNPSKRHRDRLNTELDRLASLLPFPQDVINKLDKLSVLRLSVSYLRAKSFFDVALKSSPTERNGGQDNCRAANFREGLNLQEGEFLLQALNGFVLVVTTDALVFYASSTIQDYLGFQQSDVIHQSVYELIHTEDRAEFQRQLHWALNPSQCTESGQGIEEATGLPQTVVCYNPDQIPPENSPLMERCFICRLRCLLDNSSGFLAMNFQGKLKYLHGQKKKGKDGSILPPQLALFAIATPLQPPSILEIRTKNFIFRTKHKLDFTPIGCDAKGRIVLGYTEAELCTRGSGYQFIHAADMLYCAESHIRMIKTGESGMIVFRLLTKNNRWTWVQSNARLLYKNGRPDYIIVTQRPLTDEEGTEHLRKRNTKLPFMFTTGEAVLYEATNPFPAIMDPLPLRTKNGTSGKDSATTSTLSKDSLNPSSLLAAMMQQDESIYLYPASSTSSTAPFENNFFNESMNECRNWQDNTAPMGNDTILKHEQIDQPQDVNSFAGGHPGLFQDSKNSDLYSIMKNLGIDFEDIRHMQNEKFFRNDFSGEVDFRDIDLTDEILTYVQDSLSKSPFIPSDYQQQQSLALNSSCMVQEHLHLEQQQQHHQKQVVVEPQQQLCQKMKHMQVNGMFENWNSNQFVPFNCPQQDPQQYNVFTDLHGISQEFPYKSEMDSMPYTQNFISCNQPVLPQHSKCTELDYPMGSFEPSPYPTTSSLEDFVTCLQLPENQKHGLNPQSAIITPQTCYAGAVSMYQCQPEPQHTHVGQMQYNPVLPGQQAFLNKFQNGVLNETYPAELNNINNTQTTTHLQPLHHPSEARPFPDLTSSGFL
# Chain of UniProt P37231 (P37231 whole entry, looked up): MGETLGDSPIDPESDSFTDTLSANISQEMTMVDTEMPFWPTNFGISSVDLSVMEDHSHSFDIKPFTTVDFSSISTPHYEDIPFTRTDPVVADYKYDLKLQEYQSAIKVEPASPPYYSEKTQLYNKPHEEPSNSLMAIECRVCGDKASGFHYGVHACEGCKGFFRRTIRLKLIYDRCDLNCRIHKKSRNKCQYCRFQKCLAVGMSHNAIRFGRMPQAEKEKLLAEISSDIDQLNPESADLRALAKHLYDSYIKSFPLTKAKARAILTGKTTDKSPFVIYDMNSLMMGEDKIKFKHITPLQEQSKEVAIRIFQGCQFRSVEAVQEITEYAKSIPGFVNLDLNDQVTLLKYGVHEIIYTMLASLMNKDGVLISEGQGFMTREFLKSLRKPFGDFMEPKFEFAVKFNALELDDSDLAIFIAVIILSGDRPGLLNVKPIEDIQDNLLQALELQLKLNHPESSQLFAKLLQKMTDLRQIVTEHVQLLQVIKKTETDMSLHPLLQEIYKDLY
smiles,measurement,setting,value
CCn1nc(C)c2c1C(=O)NCC(c1ccc(O)cc1)=N2,Potency,[1],active: 24.3 µM
same,"ratio activity, negative = inhibition",[2],inconclusive: -11%
same,Potency,[3],"inconclusive: 61.6 µM [rising, single point]"
same,Potency,[4],"inconclusive: 4.33 µM [falling, full curve]"
same,Potency,[5],inactive
same,"ratio activity, negative = inhibition",[6],inconclusive: 24.5%
same,"activity change, negative = inhibition",[7],inconclusive: -1.41%
C[C@H]1[C@H]2CC[C@H]3[C@@H]4CC=C5C[C@@H](N(C)C)CC[C@]5(C)[C@H]4CC[C@]23CN1C,Potency,[1],inactive
same,Potency,[4],inactive
same,Potency,[8],inactive
CCCCCCCCCCCCCCCC[N+](C)(C)CC,Potency,[9],active: 18.8 µM and active: 48.7 µM
same,Potency,[10],"inconclusive: 26.8 µM [cytotoxic, single point] and inconclusive: 61.8 µM [cytotoxic, single point]"
same,Potency,[2],inconclusive: 55.1 µM [cytotoxic] and active: 23.7 µM
same,Potency,[3],active: 17.4 µM and active: 26.6 µM
same,Potency,[4],"inconclusive: 30.7 µM [falling, partial curve] and inconclusive: 29.8 µM [falling, partial curve]"
same,Potency,[5],inconclusive: 53 µM and inconclusive: 33.5 µM
same,Potency,[11],active: 21.9 µM and active: 29.8 µM
same,Potency,[8],active: 17.4 µM and active: 21.1 µM
same,Potency,[6],"inconclusive: 55.1 µM [cytotoxic, single point] and inconclusive: 33.5 µM [single point]"
same,Potency,[12],inconclusive: 55.1 µM and inconclusive: 33.5 µM
same,Potency,[13],active: 31 µM and active: 29.8 µM
same,Potency,[14],inconclusive: 61.8 µM [single point]
same,Potency,[15],inconclusive: 61.8 µM [cytotoxic]
same,activation,[15],inconclusive: -36.3%
same,Potency,[7],"inconclusive: 55.1 µM [inhibitor, single point] and inconclusive: 26.8 µM"
c1cc2c3c(c1)ccc1cccc(c13)C2,Potency,[1],inactive
same,Potency,[3],"inconclusive: 56.1 µM [cytotoxic, single point]"
same,activation,[4],inconclusive: -18% [at 94.8 µM]
same,Potency,[16],inconclusive: 70.1 µM [cytotoxic]
same,Potency,[17],"inconclusive: 56.1 µM [cytotoxic, single point]"
same,Potency,[5],"inconclusive: 50 µM [falling, partial curve]"
same,Potency,[11],active: 56.1 µM
same,Potency,[13],"inconclusive: 63 µM [cytotoxic, single point]"
same,Potency,[15],inactive
same,"activity change, negative = inhibition",[7],inconclusive: -32.9% [at 78.8 µM]
Cc1cccc(Oc2ccccc2)c1,Potency,[1],"inconclusive: 75 µM [activator, partial curve, poor fit]"
same,Potency,[4],inactive
